# This is one part of the list.
# Target: T1, MBP-FoxP1dN (Mus musculus, UniProt P58462 326-579)
# T1 sequence: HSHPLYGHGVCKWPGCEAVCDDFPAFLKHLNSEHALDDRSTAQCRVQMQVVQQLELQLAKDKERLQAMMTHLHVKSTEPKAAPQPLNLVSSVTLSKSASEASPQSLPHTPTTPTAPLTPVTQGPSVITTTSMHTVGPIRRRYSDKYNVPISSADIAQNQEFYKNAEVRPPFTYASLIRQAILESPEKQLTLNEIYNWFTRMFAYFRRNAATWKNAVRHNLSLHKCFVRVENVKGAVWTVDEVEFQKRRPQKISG
# Experiment: PD-seq (MBP pull-down with sequencing); 20 mM Tris-HCl pH 7.5, 100 mM NaCl, 1.5 mM MgCl2, 0.4 uM protein, 0.1 uM dsDNA library, 30 min, room temperature, amylose pull-down; high values mean tight binding
# Conditions: protein: recombinant; tags: His6-MBP; chain copies: 2; dsDNA, one strand shown
# Procedure, shortened: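 In Tris pH 7.5 buffer with NaCl and MgCl2, 0.4 µM His6-MBP-tagged mouse FoxP3 or FoxP1 fragment lacking the N-terminus, from E. coli, met 0.1 µM Klenow-filled double-stranded degenerate DNA library for 30 min at room temperature. Three washes on amylose resin followed capture of the complexes, then proteinase K release of DNA, PCR barcoding and Illumina sequencing. Binding is taken as pooled-replicate reads-per-million enrichment of pull-down relative to input.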
row,Sequence,binding signal
1,GATGATTGTTCTCCCAGCTGATGAATTGCATCTATCGAGTAAACAAATTTTCCTAATCTTTCTGTTCAAGCGCCATCTAC,1.75 RPM ratio (pull-down/input)
2,GATGATTGTTCTCCCAGCTGATGAATTTAGAAGGTCGAGTAAACAAATTTTCCTAATCTTTCTGTTCAAGCGCCATCTAC,0.879 RPM ratio (pull-down/input)
3,GATGATTGTTCTCCCAGCTGATGAATTCGAACAGTCGAGTAAACAAATTTTCCTAATCTTTCTGTTCAAGCGCCATCTAC,0.783 RPM ratio (pull-down/input)
4,GATGATTGTTCTCCCAGCTGATGAATTCCTTGTGTCGAGTAAACAAATTTTCCTAATCTTTCTGTTCAAGCGCCATCTAC,0.961 RPM ratio (pull-down/input)
5,GATGATTGTTCTCCCAGCTGATGAATTCCTTGATTCGAGTAAACAAATTTTCCTAATCTTTCTGTTCAAGCGCCATCTAC,0.833 RPM ratio (pull-down/input)
6,GATGATTGTTCTCCCAGCTGATGAATTCCATCATTCGAGTAAACAAATTTTCCTAATCTTTCTGTTCAAGCGCCATCTAC,0.931 RPM ratio (pull-down/input)
7,GATGATTGTTCTCCCAGCTGATGAATTCAACAGCTCGAGTAAACAAATTTTCCTAATCTTTCTGTTCAAGCGCCATCTAC,0.893 RPM ratio (pull-down/input)
8,GATGATTGTTCTCCCAGCTGATGAATTATATTCATCGAGTAAACAAATTTTCCTAATCTTTCTGTTCAAGCGCCATCTAC,1.12 RPM ratio (pull-down/input)
9,GATGATTGTTCTCCCAGCTGATGAATTATTACCATCGAGTAAACAAATTTTCCTAATCTTTCTGTTCAAGCGCCATCTAC,1.22 RPM ratio (pull-down/input)
10,GATGATTGTTCTCCCAGCTGATGAATTACCCTAGTCGAGTAAACAAATTTTCCTAATCTTTCTGTTCAAGCGCCATCTAC,1.01 RPM ratio (pull-down/input)
11,GATGATTGTTCTCCCAGCTGATGAATTGTAGGGGTCGAGTAAACAAATTTTCCTAATCTTTCTGTTCAAGCGCCATCTAC,0.93 RPM ratio (pull-down/input)
12,GATGATTGTTCTCCCAGCTGATGAATTCCTGGAATCGAGTAAACAAATTTTCCTAATCTTTCTGTTCAAGCGCCATCTAC,0.855 RPM ratio (pull-down/input)
13,GATGATTGTTCTCCCAGCTGATGAATTTGGCAAGTCGAGTAAACAAATTTTCCTAATCTTTCTGTTCAAGCGCCATCTAC,0.823 RPM ratio (pull-down/input)
14,GATGATTGTTCTCCCAGCTGATGAATTGTCGAAATCGAGTAAACAAATTTTCCTAATCTTTCTGTTCAAGCGCCATCTAC,1.21 RPM ratio (pull-down/input)
15,GATGATTGTTCTCCCAGCTGATGAATTCACAACATCGAGTAAACAAATTTTCCTAATCTTTCTGTTCAAGCGCCATCTAC,2.11 RPM ratio (pull-down/input)
16,GATGATTGTTCTCCCAGCTGATGAATTCAACGGCTCGAGTAAACAAATTTTCCTAATCTTTCTGTTCAAGCGCCATCTAC,0.836 RPM ratio (pull-down/input)
17,GATGATTGTTCTCCCAGCTGATGAATTAATACGGTCGAGTAAACAAATTTTCCTAATCTTTCTGTTCAAGCGCCATCTAC,0.951 RPM ratio (pull-down/input)
18,GATGATTGTTCTCCCAGCTGATGAATTTTCGAATTCGAGTAAACAAATTTTCCTAATCTTTCTGTTCAAGCGCCATCTAC,0.988 RPM ratio (pull-down/input)
19,GATGATTGTTCTCCCAGCTGATGAATTCACTAGATCGAGTAAACAAATTTTCCTAATCTTTCTGTTCAAGCGCCATCTAC,0.873 RPM ratio (pull-down/input)
20,GATGATTGTTCTCCCAGCTGATGAATTTTCAAGTTCGAGTAAACAAATTTTCCTAATCTTTCTGTTCAAGCGCCATCTAC,0.899 RPM ratio (pull-down/input)
21,GATGATTGTTCTCCCAGCTGATGAATTCAGGGTTTCGAGTAAACAAATTTTCCTAATCTTTCTGTTCAAGCGCCATCTAC,0.847 RPM ratio (pull-down/input)

row,Sequence,binding signal
1,GATGATTGTTCTCCCAGCTGATGAATTGACGGGATCGAGTAAACAAATTTTCCTAATCTTTCTGTTCAAGCGCCATCTAC,0.943 RPM ratio (pull-down/input)
2,GATGATTGTTCTCCCAGCTGATGAATTTAAGTCATCGAGTAAACAAATTTTCCTAATCTTTCTGTTCAAGCGCCATCTAC,1.04 RPM ratio (pull-down/input)
3,GATGATTGTTCTCCCAGCTGATGAATTTGTAGATTCGAGTAAACAAATTTTCCTAATCTTTCTGTTCAAGCGCCATCTAC,1.09 RPM ratio (pull-down/input)
4,GATGATTGTTCTCCCAGCTGATGAATTGCAAACTTCGAGTAAACAAATTTTCCTAATCTTTCTGTTCAAGCGCCATCTAC,1.39 RPM ratio (pull-down/input)
5,GATGATTGTTCTCCCAGCTGATGAATTTGACGCGTCGAGTAAACAAATTTTCCTAATCTTTCTGTTCAAGCGCCATCTAC,1.01 RPM ratio (pull-down/input)
6,GATGATTGTTCTCCCAGCTGATGAATTTGGGCCCTCGAGTAAACAAATTTTCCTAATCTTTCTGTTCAAGCGCCATCTAC,0.765 RPM ratio (pull-down/input)
7,GATGATTGTTCTCCCAGCTGATGAATTATGCTTCTCGAGTAAACAAATTTTCCTAATCTTTCTGTTCAAGCGCCATCTAC,1.08 RPM ratio (pull-down/input)
8,GATGATTGTTCTCCCAGCTGATGAATTCGGATTGTCGAGTAAACAAATTTTCCTAATCTTTCTGTTCAAGCGCCATCTAC,0.938 RPM ratio (pull-down/input)
9,GATGATTGTTCTCCCAGCTGATGAATTAACCTTCTCGAGTAAACAAATTTTCCTAATCTTTCTGTTCAAGCGCCATCTAC,0.828 RPM ratio (pull-down/input)
10,GATGATTGTTCTCCCAGCTGATGAATTCTCGAGGTCGAGTAAACAAATTTTCCTAATCTTTCTGTTCAAGCGCCATCTAC,0.777 RPM ratio (pull-down/input)
11,GATGATTGTTCTCCCAGCTGATGAATTCATCGGGTCGAGTAAACAAATTTTCCTAATCTTTCTGTTCAAGCGCCATCTAC,0.795 RPM ratio (pull-down/input)
12,GATGATTGTTCTCCCAGCTGATGAATTCCGCTTATCGAGTAAACAAATTTTCCTAATCTTTCTGTTCAAGCGCCATCTAC,0.95 RPM ratio (pull-down/input)
13,GATGATTGTTCTCCCAGCTGATGAATTTGAACGATCGAGTAAACAAATTTTCCTAATCTTTCTGTTCAAGCGCCATCTAC,0.846 RPM ratio (pull-down/input)
14,GATGATTGTTCTCCCAGCTGATGAATTGGTTAGCTCGAGTAAACAAATTTTCCTAATCTTTCTGTTCAAGCGCCATCTAC,0.936 RPM ratio (pull-down/input)
15,GATGATTGTTCTCCCAGCTGATGAATTTCGCGCTTCGAGTAAACAAATTTTCCTAATCTTTCTGTTCAAGCGCCATCTAC,0.904 RPM ratio (pull-down/input)
16,GATGATTGTTCTCCCAGCTGATGAATTTATGAGGTCGAGTAAACAAATTTTCCTAATCTTTCTGTTCAAGCGCCATCTAC,0.982 RPM ratio (pull-down/input)
17,GATGATTGTTCTCCCAGCTGATGAATTATTGGAGTCGAGTAAACAAATTTTCCTAATCTTTCTGTTCAAGCGCCATCTAC,0.967 RPM ratio (pull-down/input)
18,GATGATTGTTCTCCCAGCTGATGAATTTTCTCCCTCGAGTAAACAAATTTTCCTAATCTTTCTGTTCAAGCGCCATCTAC,0.95 RPM ratio (pull-down/input)
19,GATGATTGTTCTCCCAGCTGATGAATTTGTTGGCTCGAGTAAACAAATTTTCCTAATCTTTCTGTTCAAGCGCCATCTAC,1.37 RPM ratio (pull-down/input)
20,GATGATTGTTCTCCCAGCTGATGAATTACAGCCGTCGAGTAAACAAATTTTCCTAATCTTTCTGTTCAAGCGCCATCTAC,0.952 RPM ratio (pull-down/input)
21,GATGATTGTTCTCCCAGCTGATGAATTAGCACATTCGAGTAAACAAATTTTCCTAATCTTTCTGTTCAAGCGCCATCTAC,1.03 RPM ratio (pull-down/input)

row,Sequence,binding signal
1,GATGATTGTTCTCCCAGCTGATGAATTCCACTCATCGAGTAAACAAATTTTCCTAATCTTTCTGTTCAAGCGCCATCTAC,0.808 RPM ratio (pull-down/input)
2,GATGATTGTTCTCCCAGCTGATGAATTCCGCTCCTCGAGTAAACAAATTTTCCTAATCTTTCTGTTCAAGCGCCATCTAC,0.766 RPM ratio (pull-down/input)
3,GATGATTGTTCTCCCAGCTGATGAATTGGCCCGTTCGAGTAAACAAATTTTCCTAATCTTTCTGTTCAAGCGCCATCTAC,0.858 RPM ratio (pull-down/input)
4,GATGATTGTTCTCCCAGCTGATGAATTCAGGTGGTCGAGTAAACAAATTTTCCTAATCTTTCTGTTCAAGCGCCATCTAC,0.776 RPM ratio (pull-down/input)
5,GATGATTGTTCTCCCAGCTGATGAATTCTTTCTCTCGAGTAAACAAATTTTCCTAATCTTTCTGTTCAAGCGCCATCTAC,0.826 RPM ratio (pull-down/input)
6,GATGATTGTTCTCCCAGCTGATGAATTTGTGGAATCGAGTAAACAAATTTTCCTAATCTTTCTGTTCAAGCGCCATCTAC,1.1 RPM ratio (pull-down/input)
7,GATGATTGTTCTCCCAGCTGATGAATTGACAACGTCGAGTAAACAAATTTTCCTAATCTTTCTGTTCAAGCGCCATCTAC,1.31 RPM ratio (pull-down/input)
8,GATGATTGTTCTCCCAGCTGATGAATTTGGCACGTCGAGTAAACAAATTTTCCTAATCTTTCTGTTCAAGCGCCATCTAC,0.875 RPM ratio (pull-down/input)
9,GATGATTGTTCTCCCAGCTGATGAATTAATTACGTCGAGTAAACAAATTTTCCTAATCTTTCTGTTCAAGCGCCATCTAC,1.22 RPM ratio (pull-down/input)
10,GATGATTGTTCTCCCAGCTGATGAATTATGAGGATCGAGTAAACAAATTTTCCTAATCTTTCTGTTCAAGCGCCATCTAC,0.907 RPM ratio (pull-down/input)
11,GATGATTGTTCTCCCAGCTGATGAATTTGTGACTTCGAGTAAACAAATTTTCCTAATCTTTCTGTTCAAGCGCCATCTAC,1.21 RPM ratio (pull-down/input)
12,GATGATTGTTCTCCCAGCTGATGAATTGCATGACTCGAGTAAACAAATTTTCCTAATCTTTCTGTTCAAGCGCCATCTAC,1.02 RPM ratio (pull-down/input)
13,GATGATTGTTCTCCCAGCTGATGAATTCGCAAAATCGAGTAAACAAATTTTCCTAATCTTTCTGTTCAAGCGCCATCTAC,1.05 RPM ratio (pull-down/input)
14,GATGATTGTTCTCCCAGCTGATGAATTGGAGACGTCGAGTAAACAAATTTTCCTAATCTTTCTGTTCAAGCGCCATCTAC,0.824 RPM ratio (pull-down/input)
15,GATGATTGTTCTCCCAGCTGATGAATTCAGGGCTTCGAGTAAACAAATTTTCCTAATCTTTCTGTTCAAGCGCCATCTAC,0.881 RPM ratio (pull-down/input)
16,GATGATTGTTCTCCCAGCTGATGAATTCTAGGATTCGAGTAAACAAATTTTCCTAATCTTTCTGTTCAAGCGCCATCTAC,0.75 RPM ratio (pull-down/input)
17,GATGATTGTTCTCCCAGCTGATGAATTCTTCGTTTCGAGTAAACAAATTTTCCTAATCTTTCTGTTCAAGCGCCATCTAC,0.946 RPM ratio (pull-down/input)
18,GATGATTGTTCTCCCAGCTGATGAATTTGCCAACTCGAGTAAACAAATTTTCCTAATCTTTCTGTTCAAGCGCCATCTAC,0.884 RPM ratio (pull-down/input)
19,GATGATTGTTCTCCCAGCTGATGAATTTAGTAGTTCGAGTAAACAAATTTTCCTAATCTTTCTGTTCAAGCGCCATCTAC,1.03 RPM ratio (pull-down/input)
20,GATGATTGTTCTCCCAGCTGATGAATTCAAAAATTCGAGTAAACAAATTTTCCTAATCTTTCTGTTCAAGCGCCATCTAC,1 RPM ratio (pull-down/input)
21,GATGATTGTTCTCCCAGCTGATGAATTTGGTGCTTCGAGTAAACAAATTTTCCTAATCTTTCTGTTCAAGCGCCATCTAC,0.889 RPM ratio (pull-down/input)

# From paper PMC12820563, “FoxP3 forms a head-to-head dimer in vivo and stabilizes its multimerization on adjacent microsatellites”
